Each structure is given as a SMILES string. Over roughly 110,000 compounds, “z-score” has its median near -0.1; the highest 2% begin near 2. The list shows a part of the results.

The target in this test is Metabotropic glutamate receptor 8 (Rattus norvegicus) (UniProt P70579). Kind of test: rat mGluR8 modulators via GIRK flux, primary screen, cell-based, thallium flux, HTS (AID 488969). Particulars: HEK293 rat mGluR8, GIRK (G protein-gated inwardly rectifying potassium channel) thallium flux, FluoZin2; at 10 µM; stronger effect = higher value; submaximal glutamate (EC20) added with thallium.
Sequence of UniProt P70579 (P70579 whole entry, looked up): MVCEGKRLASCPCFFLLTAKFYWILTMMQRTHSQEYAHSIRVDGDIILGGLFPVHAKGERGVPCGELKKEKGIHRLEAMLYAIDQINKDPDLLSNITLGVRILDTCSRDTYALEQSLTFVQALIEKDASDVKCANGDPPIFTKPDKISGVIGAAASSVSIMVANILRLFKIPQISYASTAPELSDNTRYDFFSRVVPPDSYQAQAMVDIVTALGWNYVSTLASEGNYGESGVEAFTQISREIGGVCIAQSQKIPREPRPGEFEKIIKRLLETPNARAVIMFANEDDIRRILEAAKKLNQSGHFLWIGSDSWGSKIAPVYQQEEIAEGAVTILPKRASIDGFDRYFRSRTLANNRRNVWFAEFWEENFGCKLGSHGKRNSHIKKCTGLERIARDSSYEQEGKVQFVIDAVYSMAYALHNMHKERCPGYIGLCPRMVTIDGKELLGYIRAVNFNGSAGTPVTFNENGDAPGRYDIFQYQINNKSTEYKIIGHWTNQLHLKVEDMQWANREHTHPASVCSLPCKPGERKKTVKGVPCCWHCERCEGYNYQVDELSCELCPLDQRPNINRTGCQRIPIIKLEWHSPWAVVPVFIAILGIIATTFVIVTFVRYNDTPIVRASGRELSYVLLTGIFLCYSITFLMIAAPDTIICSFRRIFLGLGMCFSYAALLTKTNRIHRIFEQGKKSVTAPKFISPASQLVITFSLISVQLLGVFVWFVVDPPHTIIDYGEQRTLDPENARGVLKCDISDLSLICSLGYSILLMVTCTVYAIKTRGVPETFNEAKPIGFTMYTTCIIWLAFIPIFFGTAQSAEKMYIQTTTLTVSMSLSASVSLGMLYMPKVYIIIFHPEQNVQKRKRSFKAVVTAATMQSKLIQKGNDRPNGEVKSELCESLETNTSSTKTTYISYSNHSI
`CC(C)(C)c1cc(C(=O)NCc2cccnc2)ccn1` had a z-score of -0.205.
Molecule `CCn1c(=O)c2cc(S(=O)(=O)NC3CCCCC3)ccc2n(CC)c1=O` returned a z-score of -1.16.
With `COc1ccc(C(C)=O)cc1COC(=O)Cn1cnc2ccccc2c1=O`, the z-score is -0.141.
In turn, `COc1cc(/C=N/NC(=O)C2C3CCCCC32C)cc(Br)c1O` (stereo unspecified) displayed a z-score of -0.151.
On to `O=C(Cn1nnc(-c2ccc(N3CCOCC3)cc2)n1)OC1CCCCC1`, for which the z-score is -0.26.
In the case of `CSc1nc2cc(Cl)ccc2s1`, the z-score is -0.233.
With `CC(=O)Nc1ccccc1-c1nc2ccccc2nc1OCC(=O)c1ccc(Cl)cc1`, the z-score is -0.591.
For `CN(C1CCCC1)C1CCN(C(=O)CNC(=O)/C=C/c2ccc(F)cc2)CC1`, the z-score was -0.476.
In turn, `COc1ccc(OC(C)C(=O)Nc2cccc([N+](=O)[O-])c2)cc1` (stereo unspecified) registered a z-score of -0.443.
With `CCOc1ccccc1-n1nnnc1SCC(=O)Nc1cc(C)on1`, the z-score is 0.428.
In turn, `Cc1cccc(-n2c(-c3cccc([N+](=O)[O-])c3)nc3nc4ccccc4nc32)c1` had a z-score of -0.0692.
As to `COc1ccc(CCNC(=O)CN2C(=O)c3ccccc3C2=O)cc1`, the z-score was -0.172.
As for `CC1=CC(=C2C(=O)c3ccccc3C2=O)C=C(C)N1C`, the figure is 0.279; as for `CCn1c(SCC(N)=O)nnc1-c1cc2c(C)nn(-c3ccccc3)c2s1`, 0.0169; as for `COc1cc(OC)cc(-c2n[nH]c(=S)n2-c2cc(OC)ccc2OC)c1`, -0.131.
The figure for `N=c1oc2ccccc2cc1C(=O)N/N=C/c1ccccc1` is -1.19; for `COc1ccc(C(=O)Nc2cccc(C(=O)N3CCN(C)CC3)c2)cc1` it is -0.312; for `O=C(c1cccc(Cl)c1)N1CCN(c2ccccn2)CC1` it is 0.0357.
As for `CCNc1nc(NC(C)C)nc(N(n2cnnc2)S(=O)(=O)c2ccc(C)cc2)n1`, the figure is -0.336; as for `COCCNC(=O)CC(c1ccccc1)c1ccccc1`, -0.175; as for `O=C(COC(=O)c1cccnc1)c1ccc(Cl)c(Cl)c1`, 0.111.
The molecule `CCC(Oc1ccccc1)C(=O)N1CCN(C(=O)C(CC)Oc2ccccc2)CC1` (stereo unspecified) registered a z-score of -0.159.
Regarding `CCc1nnc(NC(=O)c2ccc(COc3ccccc3)o2)s1`, the z-score was -0.345.
Molecule `CCNC(=S)Nc1ccc(Cl)cc1Cl` had a z-score of 0.108.
As for `COc1ccc(/C=N/n2cnnc2SCc2ccc(OC)cc2)cc1`, the z-score is -0.739.
`COc1ccc(CNC(=S)NCc2ccc(OC(C)C)cc2)cc1` registered a z-score of 0.57.
Molecule `CCOc1cc(C(=O)Nc2ccccc2F)cc(Br)c1OCC` had a z-score of 0.353.
The molecule `CN(C)CCNC(=O)C12CC3(C)CC(C)(CC(C)(C3)C1)C2` registered a z-score of 0.238.
For the molecule `Cc1ccc(Nc2nc(N)nc(CN3CCN(Cc4ccc5c(c4)OCO5)CC3)n2)cc1Cl`, the z-score is -0.81.
On to `Cc1oc2nc(SCC(=O)NC3CCCCC3)nc(N)c2c1C`, for which the z-score was -0.638.
The figure for `CC1(C)OC(C(N)=O)C(C(N)=O)O1` (stereo unspecified) is 0.57; for `Cc1nnc(SCC(=O)Nc2ccc(Cl)cn2)s1` it is -1.36.
Turning to `O=C(Cc1ccc(Cl)cc1)NNC(=O)Nc1cccc2ccccc12`, the z-score is -0.207.
`Cc1onc(-c2c(Cl)cccc2Cl)c1C(=O)c1c[nH]c(C(=O)NCCCN2CCOCC2)c1` had a z-score of -0.498.
With `CC(C)C(NC(=O)/C=C/c1cccc([N+](=O)[O-])c1)C(C)C`, the z-score worked out at 0.0785.
`O=C(CSc1nnc(-c2cc3ccccc3cc2O)n1Cc1ccco1)N1CCc2ccccc2C1` yielded a z-score of -0.103.
`O=C(O)CCSc1nnc(-c2ccc3c(c2)OCO3)o1` displayed a z-score of -1.25.
As for `COc1ccc(OC)c(NC(=S)NCCSc2ccc(C)cc2)c1`, the figure is 0.00717; as for `CCCC(=O)OC1CC(C)N(C(=O)c2ccccc2)c2ccc(C)cc21` (stereo unspecified), -0.333.
Consider `Cc1ccc(CCP(=O)(O)CN2CCOCC2)cn1`, for which the z-score was found to be 0.0859.
Consider `COc1cc(OC)cc(C(=O)Nc2ncc3c(n2)CC(C)(C)CC3=O)c1`, for which the z-score is -0.87.
As to `Cc1ccc(C(=O)N/N=C2/NC(=O)CC(C(=O)Nc3ccccc3)S2)cc1` (stereo unspecified), the z-score was found to be 0.0145.
The figure for `COc1ccc(N(C(=O)COc2ccc(F)cc2)S(=O)(=O)c2ccc(C)cc2)cc1` is -0.382.
In turn, `N#CC1=C2SCC(O)(c3ccccc3)N2C(=O)CC1c1ccccc1F` (stereo unspecified) displayed a z-score of -0.0286.
In turn, `NC1=NC2(CCCCC2)n2c(nc3ccccc32)N1` gave a z-score of 1.41.
For the molecule `Cc1ccc(S(=O)(=O)CC(N)=O)cc1`, the z-score is -0.286.
`Cc1nn(Cc2c(Cl)cccc2Cl)c(C)c1NC(=O)CCCn1nc([N+](=O)[O-])c(Cl)c1C` came in with a z-score of -0.326.
In turn, `Cc1ccc(C(c2sc3nc(C)nn3c2O)N2CCN(c3ccccc3)CC2)cc1` (stereo unspecified) displayed a z-score of -0.127.
As for `Cc1cccc(OCCCCc2c(C)n[nH]c2C)c1`, the figure is 0.289; as for `O=C(CNS(=O)(=O)c1ccc2ccccc2c1)OCc1nnc(-c2ccccc2)o1`, -0.683.
Regarding `Cn1c(=O)cc(OCCCC(=O)NCCN2CCN(c3ccccc3F)CC2)c2ccccc21`, the z-score was -0.123.
In turn, `Cc1ccc(CNC(=O)C(NS(=O)(=O)c2ccc3nc(C)sc3c2)C(C)C)cc1` (stereo unspecified) showed a z-score of 0.342.
As for `COCCNC(=O)NC(=O)COC(=O)c1cc([N+](=O)[O-])ccc1Sc1nc(C)cs1`, the figure is -0.177; as for `O/N=C/c1cc(Br)ccc1OCc1cccc(F)c1`, -0.322.
With `O=C(Nc1ccc(F)cc1)c1ccccc1Oc1ccc(C(F)(F)F)cc1[N+](=O)[O-]`, the z-score was -0.194.
In turn, `COC(=O)Nc1sc2nc(C)cc(C)c2c1-n1cccc1` registered a z-score of 0.141.
Molecule `CCOc1ccc(Cl)cc1S(=O)(=O)N1CCN(c2ccc(F)cc2)CC1` returned a z-score of -0.552.
`CCC(NC(=S)NCc1ccccc1)C(=O)O` (stereo unspecified) gave a z-score of -0.526.
With `c1cc2c(cc1C1CCCCC1)c1c3n2CCCNC3CCC1` (stereo unspecified), the z-score was determined as 0.609.
The molecule `N#Cc1cc2c(nc1SCC(=O)Nc1sc3c(c1C#N)CCC3)CCC2` had a z-score of -0.138.
As for `Cc1nn2c(=O)cc(CSc3nc4ccccc4[nH]3)nc2s1`, the figure is -0.335.
In turn, `Nc1nc(Br)c2c(F)cccc2c1-c1ccc(Cl)cc1` showed a z-score of 0.246.
The figure for `O=C(CCNS(=O)(=O)c1ccc(Br)s1)NC1CCCC1` is 0.223; for `Cc1ccc(OCC(=O)O/N=C(\N)Cc2cccs2)cc1C` it is -0.196; for `CCn1c2ccccc2c2nnc(SCc3ccc(C(=O)OC)o3)nc21` it is -0.221.
The molecule `CC(OC(=O)c1cc2sccc2n1C)C(=O)NCc1ccc2c(c1)OCO2` (stereo unspecified) came in with a z-score of -0.018.
The figure for `Nc1nc(SCc2ccc([N+](=O)[O-])cc2)nc2nc3c(cc12)CCCC3` is 0.353.
Molecule `O=C(NCc1cc(C(F)(F)F)cc(C(F)(F)F)c1)C1CC(c2ccccc2[N+](=O)[O-])=NO1` (stereo unspecified) returned a z-score of -0.0149.
Regarding `CCOc1ccc(C(=O)NCC(=O)OCC(=O)N2CCCCC2)cc1`, the z-score is 0.2.
Consider `CN(C)CCCN1C(=O)C(O)=C(C(=O)c2cc3ccccc3o2)C1c1ccccc1` (stereo unspecified), for which the z-score is -0.0674.
In the case of `CCOC(=O)C(C)(C)NS(=O)(=O)c1ccc(Cl)c([N+](=O)[O-])c1`, the z-score was -0.285.

For the origin of these results see PubChem BioAssay AID488969 (Vanderbilt High Throughput Screening Facility, 2010).
